{
  "source": "paper PMC10732398",
  "about": "(PLOS Pathogens, 2023)",
  "binders": {"B1": {"name": "soluble recombinant ⍺4β7 (receptor)", "chain 1": "not shown", "chain 2": "ELDAKIPSTGDATEWRNPHLSMLGSCQPAPSCQKCILSHPSCAWCKQLNFTASGEAEARRCARREELLARGCPLEELEEPRGQQEVLQDQPLSQGARGEGATQLAPQRVRVTLRPGEPQQLQVRFLRAEGYPVDLYYLMDLSYSMKDDLERVRQLGHALLVRLQEVTHSVRIGFGSFVDKTVLPFVSTVPSKLRHPCPTRLERCQSPFSFHHVLSLTGDAQAFEREVGRQSVSGNLDSPEGGFDAILQAALCQEQIGWRNVSRLLVFTSDDTFHTAGDGKLGGIFMPSDGHCHLDSNGLYSRSTEFDYPSVGQVAQALSAANIQPIFAVTSAALPVYQELSKLIPKSAVGELSEDSSNVVQLIMDAYNSLSSTVTLEHSSLPPGVHISYESQCEGPEKREGKAEDRGQCNHVRINQTVTFWVSLQATHCLPEPHLLRLRALGFSEELIVELHTLCDCNCSDTQPQAPHCSDGQGHLQCGVCSCAPGRLGRLCECSVAELSSPDLESGCRAPNGTGPLCSGKGHCQCGRCSCSGQSSGHLCECDDASCERHEGILCGGFGRCQCGVCHCHANRTGRACECSGDMDSCISPEGGLCSGHGRCKCNRCQCLDGYYGALCDQCPGCKTPCERHRDCAECGAFRTGPLATNCSTACAHTNVTLALAPILDDGWCKERTLDNQLFFFLVEDDARGTVVLRVRPQEKGADH", "notes": "also called soluble α4β7"}},
  "target": "T1, CD4 D1D2 protein, 23 kD (aa 1-183) (human, UniProt P01730 in part)",
  "T1 construct": "also called sCD4 (D1D2); sCD4 D1D2; source: gift from Dr. E. Berger",
  "assay": "SPR; Biacore 3000; soluble ⍺4β7 passed over immobilised ligand; HBS pH 7.4, 1 mM MnCl2, 0.005% Tween-20, 25°C, 25 μl/min",
  "details": "both partners purified",
  "data": [
    {"binder": "B1", "values": [
      {"measurement": "Kd", "value": 3.57, "unit": "nM"}
    ]}
  ]
}
